Measured values reported in the supplement of paper PMC7826260.
This is one part of the list. Viral Rep nickase domains cut single-stranded DNA in vitro for 1 h at 37 °C with 3 µM enzyme; only the middle of the 90-letter strands is printed. The score is log2 (uncut reads / reads without enzyme); uncut sequences lie near 0, cut ones below; no hit call is given. Reads are scaled to the total; uncut strands gain when others are lost, and binding without cutting may add a little.

Columns and labels:
Assay in all cases: uncleaved DNA left, log2 of reads against the no-enzyme library (log2 ratio); higher = less cleavage (more negative = more Rep cleavage of the k-mer); sequences stand for … in CTCGTCCG…ACCGGAGA
[1] = tested on: T1, Rep nickase domain of Muscovy duck circovirus
T1 sequence (residues 1-111, tag not shown): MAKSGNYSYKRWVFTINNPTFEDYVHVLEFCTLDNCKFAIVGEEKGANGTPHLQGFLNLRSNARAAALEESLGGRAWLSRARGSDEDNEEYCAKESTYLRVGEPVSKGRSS
Method: (§1)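 A pool of 90-nt single-stranded DNAs with seven random bases just before the constant AC of the nick site (name = the seven bases) was cut by 3 µM recombinant His6-SUMO-tagged Rep nickase domain (300 nM DNA, 50 mM HEPES pH 8.0, 50 mM NaCl, 1 mM MnCl2, 1 h, 37 °C, three replicates). Uncut DNA was amplified and sequenced.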

[2] = tested on: T2, Rep nickase domain of banana bunchy top virus
T2 sequence (residues 1-94, tag not shown): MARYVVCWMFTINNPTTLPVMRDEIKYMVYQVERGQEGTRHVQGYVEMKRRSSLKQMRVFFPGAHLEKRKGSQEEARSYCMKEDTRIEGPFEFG
Method: as §1

[3] = tested on: T3, Rep nickase domain of cabbage leaf curl virus
T3 sequence (residues 1-116, tag not shown): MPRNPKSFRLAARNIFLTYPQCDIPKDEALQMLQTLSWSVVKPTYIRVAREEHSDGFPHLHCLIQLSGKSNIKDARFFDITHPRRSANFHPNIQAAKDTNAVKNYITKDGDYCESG
Method: as §1

[4] = tested on: T4, Rep nickase domain of chickpea chlorotic dwarf virus
T4 sequence (residues 1-124, tag not shown): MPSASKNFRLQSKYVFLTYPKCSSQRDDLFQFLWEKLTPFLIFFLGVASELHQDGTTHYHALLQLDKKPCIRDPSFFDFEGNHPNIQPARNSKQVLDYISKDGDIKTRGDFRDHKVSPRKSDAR
Method: as §1

[5] = tested on: T5, Rep nickase domain of faba bean necrotic yellows virus
T5 sequence (residues 1-98, tag not shown): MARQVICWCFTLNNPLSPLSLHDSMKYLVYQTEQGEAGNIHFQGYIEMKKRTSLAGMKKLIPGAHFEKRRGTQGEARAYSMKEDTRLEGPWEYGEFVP
Method: as §1

[6] = tested on: T6, Rep nickase domain of maize striate mosaic virus
T6 sequence (residues 1-117, tag not shown): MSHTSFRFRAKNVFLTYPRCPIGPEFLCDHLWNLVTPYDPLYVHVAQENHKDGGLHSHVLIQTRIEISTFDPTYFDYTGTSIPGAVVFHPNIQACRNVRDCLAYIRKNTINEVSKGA
Method: as §1

[7] = tested on: T7, Rep nickase domain of porcine circovirus 2
T7 sequence (residues 2-116, tag not shown): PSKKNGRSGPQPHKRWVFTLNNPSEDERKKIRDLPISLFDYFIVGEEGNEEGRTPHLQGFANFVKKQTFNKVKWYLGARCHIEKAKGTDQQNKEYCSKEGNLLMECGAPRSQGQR
Method: as §1

[8] = tested on: T8, Rep nickase domain of tomato golden mosaic virus
T8 sequence (residues 1-124, tag not shown): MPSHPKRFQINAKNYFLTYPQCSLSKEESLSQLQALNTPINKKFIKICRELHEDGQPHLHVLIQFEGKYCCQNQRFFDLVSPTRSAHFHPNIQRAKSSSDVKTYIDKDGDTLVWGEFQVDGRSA
Method: as §1

[9] = tested on: T9, Rep nickase domain of tomato yellow leaf curl virus
T9 sequence (residues 1-136, tag not shown): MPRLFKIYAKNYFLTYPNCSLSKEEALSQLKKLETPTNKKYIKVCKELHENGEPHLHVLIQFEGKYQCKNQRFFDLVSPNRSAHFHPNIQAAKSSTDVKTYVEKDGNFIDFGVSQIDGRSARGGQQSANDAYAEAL
Method: as §1

[10] = tested on: T10, Rep nickase domain of wheat dwarf virus
T10 sequence (residues 1-137, tag not shown): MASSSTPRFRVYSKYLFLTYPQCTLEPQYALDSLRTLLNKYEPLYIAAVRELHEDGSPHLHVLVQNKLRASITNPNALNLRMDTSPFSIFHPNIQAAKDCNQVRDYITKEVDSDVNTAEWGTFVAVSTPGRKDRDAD
Method: as §1

Row | Sequence | uncleaved DNA left (log2) [1] | uncleaved DNA left (log2) [2] | uncleaved DNA left (log2) [3] | uncleaved DNA left (log2) [4] | uncleaved DNA left (log2) [5] | uncleaved DNA left (log2) [6] | uncleaved DNA left (log2) [7] | uncleaved DNA left (log2) [8] | uncleaved DNA left (log2) [9] | uncleaved DNA left (log2) [10]
1 | GGTGCGA | -0.0755 | -0.0887 | -0.292 | 0.114 | -0.101 | -0.272 | 0.00174 | -0.2 | -0.0938 | -0.167
2 | GTCCATC | -0.0852 | 0.0582 | 0.333 | 0.982 | -0.0658 | 1.42 | 0.0341 | 0.0395 | -0.0236 | 0.0895
3 | ACGAGAT | 0.0458 | 0.0426 | 0.243 | 0.672 | -0.0516 | 0.672 | 0.125 | 0.0607 | -0.134 | 0.0275
4 | GGCTCCG | 0.0569 | -0.0383 | 0.034 | 0.16 | 0.00166 | -0.00954 | 0.0849 | 0.0166 | -0.0752 | 0.045
5 | AGCAAGC | -0.0381 | 0.0035 | 0.00661 | 0.136 | 0.0964 | -0.625 | 0.0949 | -0.0151 | 0.0173 | 0.0336
6 | ACTCGTA | -0.052 | -0.00299 | -0.337 | -0.989 | 0.0654 | -0.861 | -0.117 | 0.103 | -0.0887 | -0.0906
7 | GGAGGTC | 0.0255 | -0.0412 | 0.599 | 1.39 | 0.0309 | 1.91 | -0.00828 | -0.0893 | -0.101 | -0.0481
8 | TAGGGGC | 0.168 | 0.127 | 0.814 | 1.33 | 0.105 | 1.75 | 0.331 | 0.161 | -0.0184 | 0.178
9 | AACGCAC | -0.0548 | -0.00313 | -0.317 | -0.107 | 0.0799 | -0.579 | 0.144 | 0.0959 | -0.0557 | 0.000977
10 | CTCAGGA | -0.0103 | -0.0516 | 0.0624 | 0.667 | -0.0547 | 0.682 | -0.0176 | -0.0833 | -0.172 | -0.137
11 | ATGGGCA | -0.0545 | -0.193 | 0.179 | 0.5 | -0.126 | 0.175 | -0.0433 | -0.0191 | -0.146 | -0.0359
12 | ACACCAA | -0.185 | -0.0542 | -0.252 | -0.311 | -0.0602 | -0.682 | -0.00634 | -0.108 | -0.193 | -0.0882
13 | GCTGGTT | -0.0455 | -0.0439 | 0.118 | 0.101 | -0.0498 | 0.959 | 0.0657 | 0.192 | -0.107 | 0.00338
14 | GAAGAGT | 0.0915 | 0.0736 | 0.245 | 0.0841 | 0.0958 | 0.35 | 0.0724 | 0.0665 | 0.0669 | 0.109
15 | GCGGCCC | 0.0565 | -0.0252 | 0.36 | 0.849 | -0.0167 | 1.12 | 0.106 | -0.0271 | 0.0287 | 0.0996
16 | GTCAGGG | 0.103 | 0.143 | 0.313 | 0.848 | 0.0727 | 1.35 | 0.241 | 0.25 | 0.0668 | 0.191
17 | GAGGCCG | 0.116 | 0.122 | -0.461 | -0.112 | 0.122 | -0.495 | 0.244 | 0.176 | 0.214 | 0.178
18 | AGTTACA | 0.117 | -0.028 | -0.0101 | -1.88 | 0.0956 | 0.145 | -0.341 | 0.0249 | 0.154 | 0.131
19 | ACACGGT | 0.0372 | 0.00915 | -0.514 | -0.691 | -0.112 | -0.606 | -0.00767 | 0.0413 | -0.115 | -0.182
20 | GGAATTT | -0.0556 | 0.069 | 0.55 | 1.19 | -0.065 | 2.01 | 0.156 | -0.0845 | 0.0583 | 0.0952
21 | TTCTCCA | -0.0941 | -0.112 | 0.0288 | -0.207 | -0.0227 | 0.744 | -0.203 | -0.204 | -0.0519 | -0.0341
22 | GTGAAAG | 0.144 | 0.191 | 0.00514 | 0.163 | 0.209 | -0.458 | 0.311 | 0.209 | 0.229 | 0.258
23 | AAACGGG | 0.198 | 0.0854 | -0.209 | -0.16 | 0.0759 | -0.776 | 0.153 | 0.0462 | 0.0532 | -0.00765
24 | GAGCGCA | 0.143 | 0.22 | 0.0641 | 0.657 | 0.16 | 1.15 | 0.176 | 0.161 | 0.18 | 0.102
25 | TCGGAAG | -0.118 | -0.0861 | -0.614 | -0.666 | -0.0725 | -1.06 | 0.0699 | -0.107 | -0.076 | -0.178
26 | GCGATAT | 0.132 | 0.164 | 0.568 | 1.39 | -0.0542 | 1.7 | 0.141 | 0.0815 | 0.0564 | 0.109
27 | ATTTTAG | 0.00464 | 0.0309 | -0.87 | -0.457 | 0.0142 | -1.39 | 0.161 | 0.0597 | -0.0818 | -0.116
28 | ATGGGTT | 0.0486 | -0.102 | 0.173 | 1.02 | 0.0355 | 1.63 | 0.153 | 0.14 | -0.0339 | 0.0308
29 | GAGCTCA | 0.042 | -0.000735 | 0.0683 | -0.373 | -0.1 | 0.657 | -0.642 | 0.0684 | 0.0315 | 0.113
30 | GGAAGTC | 0.157 | 0.152 | 0.578 | 1.46 | 0.057 | 1.95 | 0.24 | 0.032 | 0.0435 | 0.229
